From the supplement of paper PMC3334620
In all, about 33,000 sequences were measured (“E-score (-0.5 to 0.5)”: median about -0.011, highest 2% from about 0.28 on). This is one part of the list.

molecular target: T1, Gcr1 (UniProt P07261); experiment: PBM E-score (8-mer binding enrichment) (E-score (-0.5 to 0.5)); higher = stronger / more preferred TF binding; most listed sequences are background and not binding sites; conditions: protein concentration: 100 nM; construct: GST-full length
T1 sequence: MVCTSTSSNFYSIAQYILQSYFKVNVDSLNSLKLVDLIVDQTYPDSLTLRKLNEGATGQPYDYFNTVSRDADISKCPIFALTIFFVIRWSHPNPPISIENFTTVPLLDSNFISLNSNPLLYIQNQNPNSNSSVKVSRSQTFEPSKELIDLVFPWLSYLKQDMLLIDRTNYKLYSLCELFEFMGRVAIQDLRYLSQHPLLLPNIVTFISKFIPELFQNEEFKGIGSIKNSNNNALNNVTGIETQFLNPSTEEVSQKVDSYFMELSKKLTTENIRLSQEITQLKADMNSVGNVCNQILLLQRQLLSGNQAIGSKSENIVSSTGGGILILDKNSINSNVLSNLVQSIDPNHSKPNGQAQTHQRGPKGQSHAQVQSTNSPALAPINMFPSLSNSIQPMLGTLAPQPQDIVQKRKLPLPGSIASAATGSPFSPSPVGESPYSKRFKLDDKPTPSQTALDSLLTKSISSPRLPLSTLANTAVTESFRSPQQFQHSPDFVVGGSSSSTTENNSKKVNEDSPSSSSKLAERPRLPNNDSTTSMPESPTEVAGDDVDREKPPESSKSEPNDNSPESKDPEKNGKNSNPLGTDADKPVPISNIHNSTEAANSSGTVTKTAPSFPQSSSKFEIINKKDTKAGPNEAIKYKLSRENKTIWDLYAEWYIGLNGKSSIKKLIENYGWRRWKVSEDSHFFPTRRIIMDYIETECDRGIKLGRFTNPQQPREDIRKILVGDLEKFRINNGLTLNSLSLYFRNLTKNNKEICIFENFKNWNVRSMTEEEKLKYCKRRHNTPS
How it was run: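 Masliner-normalised scans of fluorescent anti-GST signal were the basis for scoring. That signal came from GST-tagged yeast transcription factors applied at about 100-200 nM to double-stranded universal all-10-mer Agilent arrays on fresh or once-stripped slides. Each ungapped eight-base word, pooled with its reverse complement, received an E-score from the Universal PBM Analysis Suite.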

Sequence	PBM E-score
ACGCTAGA	-0.0413
ACCGAGGA	-0.0437
CTTCACTA	0.076
AGACTGCG	-0.139
GATGACCC	-0.253
ACTCGAAC	0.0896
ATACCTAC	0.101
GAATTGCA	-0.147
CCAGCTCC	0.125
AGACTGGG	-0.00719
ACACCGGG	0.00596
ATAGTTTA	-0.0712
CTAGACGA	-0.0741
GCTTGAGA	0.051
AGTACGGC	-0.255
AAGTTTAC	0.164
CTATGGAG	0.0191
TATTCTGA	0.208
ATGGTGAG	-0.156
GACCAGTC	-0.264
AGGACAGA	-0.088
AGCAATGG	-0.0456
GCTTCTAC	0.301
CTCCGATA	-0.151
ATTTTATA	0.198

Sequence	PBM E-score
AGTTGTAA	0.0207
ACTAGCAC	-0.0196
CCGGTGAC	0.0775
GGAGGAGA	-0.052
CAAATTGC	0.152
ACGCTGCT	0.34
GAACTAGA	0.134
CCTCCCAA	-0.156
CTTGAATA	0.0461
AACCTTCG	-0.0361
AACCGTCA	-0.187
CTGGCGAC	0.111
ATATGCTA	0.115
GCAAATAA	0.0306
CGTCTCTA	0.0216
CCTTCAAA	0.0562
ATTCCCAG	0.2
AAGTAAAG	-0.0829
TAGGTAGA	0.116
TTGTCAAA	-0.015
GTACTCAC	-0.136
CATCGCTC	-0.108
CCTAACAA	0.189
GTATTAAA	-0.0151
CAGGCTGC	0.264

Sequence	PBM E-score
CCTGATAA	0.0527
CCCCTAAA	0.0536
GGATCGCA	0.142
CATGGAGA	0.0388
CCAGGAGA	-0.186
GGGTCCGA	0.0717
TAACGGTA	0.0755
TACTTTGA	0.0204
GGCGTACC	-0.0345
AAGGTTCC	0.216
ATCGCACC	-0.127
CCAAGTGA	-0.0336
GTTTTGAA	0.135
GGCGGTAA	-0.0395
AATGCGGG	0.0952
ATGGAAGC	0.344
CAGACATC	-0.153
ATTAGGAG	0.26
CCGATAAC	0.0742
ACAGTGAT	-0.0432
TCGATACA	0.0848
ATCTGCCC	-0.0841
AAACTTAG	0.0395
CGGAAAGC	-0.116
CATAGATA	-0.197

Sequence	PBM E-score
TTCGCGAA	0.244
CACCAGAG	0.101
TAGCGACA	0.113
AAGACGCA	0.0384
GCGCCCGA	0.265
AGTTTTAG	0.0273
GTTACTTA	-0.0744
GCATTAAC	0.109
ATCGGCGC	-0.0192
ACGCCTCA	-0.137
GGTATAAC	-0.036
ACACGATG	0.114
AGGAAGAC	0.103
AGCTCCAC	-0.0447
AAATAAGG	0.0561
TAGGATAA	-0.00169
CGCTAACC	0.125
ATCGTCAC	-0.136
GACCTCCC	-0.283
ACATTTTC	0.0949
CCAGAAGG	0.0811
GTGCTTAA	0.0798
TCATCGGA	-0.0211
TCGGGGCA	0.161
ACCTAATA	0.0657

Sequence	PBM E-score
ACTGACAA	0.244
GCAAGTCA	-0.0307
ACAACTAA	0.166
ATCCTAAA	0.211
GGACATGA	-0.106
ATAGTCAA	0.0839
GGTCGCGA	-0.0186
AGGGTGCC	0.39
GGGTGTAA	0.0413
AATTCAAA	-0.0968
ACCAAGGG	-0.0292
AGGACTGG	-0.122
CCTCCTAG	-0.24
CTCCAGAG	0.0742
GTGACATA	0.217
CCCACTGA	-0.0104
CCACAGCC	-0.154
CCCAGTCC	-0.0352
ACGGACAT	-0.129
AGCAGACA	-0.143
CACAAAGG	0.0646
CTAGCAAC	0.215
ACGTGACG	-0.146
TCCACGCA	0.0449
GTAGAATA	-0.0431

Sequence	PBM E-score
GGACGCAC	0.127
TAGATGGA	0.0525
GAGTCCGC	0.0705
ATCACAAT	-0.0901
CACGGAAA	-0.0551
AATATGAA	0.16
CTGCCTGA	0.0775
ACTACCGA	0.0278
ATTCCGCG	0.0984
AACCTAAT	0.183
AAGCCAGA	0.202
GTATCGGA	0.0494
ACACGAAT	0.319
CAGCTCGG	-0.217
ATGGCGTA	-0.166
ACTAACGG	0.0396
GCTACTTA	0.134
GATGGCCC	-0.332
GAAGACTA	-0.128
GATAACAA	-0.156
CTCCACGC	-0.112
CCCTAGTA	0.0614
ACCGACCT	-0.161
ACTCGCCT	-0.164
CTACTCCA	0.00566

Sequence	PBM E-score
GACTGAGA	-0.0436
AGGGTGGC	0.018
CGCTCGAG	-0.298
GCGTCCCC	0.304
CATGGTGA	-0.03
GGGCCAAC	-0.13
CTTTGGCA	0.0282
AAAAGGAA	0.361
AACAGGAT	0.318
AAAACTAC	0.0785
AGCTGGAC	-0.182
CTACCTAA	0.0905
GGAATGTA	0.119
GACTCTGC	0.0834
CATGTGAA	-0.182
CATGGCTC	-0.125
CCCAGGGC	-0.152
GGTCAAAA	-0.0988
ACCGGACC	-0.16
CCAATGTC	0.116
CCAACGCA	0.082
TAAGCAGA	-0.0548
